Assay results published in patent US20210015895A1 (PROCLARA BIOSCIENCES, published 2021).

B1: N1-N2-hIgG1-Fc fusion protein (SEQ ID NO:1) (Fc fusion)
chain: AETVESCLAKPHTENSFTNVWKDDKTLDRYANYEGCLWNATGVVVCTGDETQCYGTWVPIGLAIPENEGGGSEGGGSEGGGSEGGGTKPPEYGDTPIPGYTYINPLDGTYPPGTEQNPANPNPSLEESQPLNTFMFQNNRFRNRQGALTVYTGTFTQGTDPVKTYYQYTPVSSKAMYDAYWNGKFRDCAFHSGFNEDPFVCEYQGQSSDLPQPPVNAGGGSGGGSGGGSEGGGSEGGGSEGGGSEGGGSGGGSGSGAMVRS[human IgG1 Fc not printed]
B2: Polypeptide 86-T41G (Fc fusion)
chain: AETVESCLAKPHTENSFTNVWKDDKTLDRYANYEGCLWNAGGVVVCTGDETQCYGHWVPIGLAIPENEGGGSEGGGSEGGGSEGGGTKPPEYGDTPIPGYTYINPLDGTYPPGTEQNPANPNPSLEESQPLNTFMFQNNRFRNRQGALTVYTGTFTQGTDPVKTYYQYTPVSSRAMYDAYWNGKFRDCAFHSGFNEDPFVCEYQGQSSDLPQPPANAGGESGGGSGGGSEGGGSEGGGSEGGGSEGGGSGGGSGSGARS[human IgG1 Fc not printed]

Molecular target: T1, NAC fibers (non-amyloid beta component of senile plaque, aggregated fragment of alpha-synuclein) (UniProt P37840 61-95)
T1 construct: domain: non-amyloid beta component (NAC); Fibrillar aggregate dry-coated on ELISA plates; also called NAC peptide
Experiment: fiber ELISA, polypeptide at 50 and 200 nM
Procedure: The non-amyloid beta component (NAC) of senile plaque is an aggregated fragment of alpha-synuclein, the aggregate that is the hallmark of Parkinson's disease. NAC peptide ((Bachem H2598) was dissolved in 20 mM NaHCO₃ at 600 uM and centrifuged for 1 hour, 100,000×g at 4° C. Supernatant was neutralized with 2N HCl and mixed 1:1 with 10 mM HCl. The peptide was incubated for 4 days at 37° C. and fiber formation confirmed by ThT fluorescence assay.
Fibers were diluted to 1 μM in PBSA-0.02% and dry-coated on Maxisorp Nunc Immunoplate ELISA plates (ThermoFisher Cat no. 442404) by incubation over night at 37° C. Wells were blocked, 200 μl/well, in Superblock (ThermoFisher Cat no. 37515) for 1 hour at room temperature and washed in PBST-0.05%.
The polypeptide of SEQ ID NO:1 and Polypeptide 86 T41G were separately added to the fiber ELISA at 50 and 200 nM and incubated for 1 hour at 37° C. Wells were washed in PBST-0.05% 6×200 μl before incubation with goat anti-human IgG Fc fragment specific-HRP (Jackson labs Cat no. 109-035-008), 1:2500 in TBST-0.05%; 1% milk block (LabScientific Cat no. 732-291-1940), for 45 minutes in room temperature. Plates were washed in 4×200 ul TBST-0.05%, 2×200 ul PBS before adding 50 ul TMB solution (Sigma T0440) per well. […] The absorbance at 450 nm was recorded in a Tecan plate reader (Infinite M1000Pro).

| Binder | binding result |
| --- | --- |
| B1 | binds |
| B2 | binds |
